SMILES strings stand for the structures. About 2,200 (0.71%) of roughly 310,000 compounds showed an effect of 50% or more. Effects have a minus sign here. Some of the results follow.

In this assay the target is human ether-à-go-go-related gene (hERG) potassium channel (human, UniProt Q12809). Briefly: primary screen, population patch clamp on CHO cells stably expressing hERG.
Sequence of human ether-à-go-go-related gene (hERG) potassium channel (Q12809 whole entry, looked up): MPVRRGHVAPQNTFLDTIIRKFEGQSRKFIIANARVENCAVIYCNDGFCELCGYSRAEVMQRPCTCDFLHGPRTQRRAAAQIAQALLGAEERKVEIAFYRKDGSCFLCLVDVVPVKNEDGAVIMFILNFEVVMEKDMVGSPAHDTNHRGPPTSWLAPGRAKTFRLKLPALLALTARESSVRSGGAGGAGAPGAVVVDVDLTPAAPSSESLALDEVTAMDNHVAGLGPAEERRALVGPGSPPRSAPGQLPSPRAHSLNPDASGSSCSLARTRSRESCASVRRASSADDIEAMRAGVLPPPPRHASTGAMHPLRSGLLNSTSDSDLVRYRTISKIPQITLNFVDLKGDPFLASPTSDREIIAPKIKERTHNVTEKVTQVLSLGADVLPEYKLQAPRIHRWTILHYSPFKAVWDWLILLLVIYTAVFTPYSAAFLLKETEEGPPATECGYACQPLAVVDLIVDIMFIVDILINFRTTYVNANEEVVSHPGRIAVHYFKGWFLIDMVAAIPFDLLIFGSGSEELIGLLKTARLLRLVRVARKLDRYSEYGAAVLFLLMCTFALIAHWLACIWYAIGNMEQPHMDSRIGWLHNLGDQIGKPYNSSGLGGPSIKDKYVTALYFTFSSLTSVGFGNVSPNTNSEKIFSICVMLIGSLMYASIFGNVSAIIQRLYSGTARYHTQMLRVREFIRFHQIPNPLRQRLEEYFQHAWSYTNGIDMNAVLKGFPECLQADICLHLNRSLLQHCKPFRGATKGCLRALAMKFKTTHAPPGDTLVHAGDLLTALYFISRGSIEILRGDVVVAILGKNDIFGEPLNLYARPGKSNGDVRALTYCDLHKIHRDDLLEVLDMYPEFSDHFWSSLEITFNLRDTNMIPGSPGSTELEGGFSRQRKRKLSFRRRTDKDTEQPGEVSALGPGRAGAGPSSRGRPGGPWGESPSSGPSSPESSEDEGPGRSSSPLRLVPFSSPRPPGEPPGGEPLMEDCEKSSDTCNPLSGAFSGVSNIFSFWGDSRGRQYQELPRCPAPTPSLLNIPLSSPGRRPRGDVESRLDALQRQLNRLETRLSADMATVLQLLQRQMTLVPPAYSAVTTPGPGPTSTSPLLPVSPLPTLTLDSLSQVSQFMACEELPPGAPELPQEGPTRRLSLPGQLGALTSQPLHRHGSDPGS
With `CCCCc1ccc(-c2csc(/C(C#N)=C/c3ccc(C)o3)n2)cc1`, the “hERG current change (%, negative = inhibition) at 1uM” value is recorded as 10.7%.
Turning to `CCOc1ccc(OCC(=O)Nc2ccccc2C(F)(F)F)cc1`, the “hERG current change (%, negative = inhibition) at 1uM” value was 11.6%.
Under `COC(=O)[C@H](NC(=O)c1cc(-c2ccccc2)nc2ccccc12)c1ccccc1` stands 13.3%.
Consider `COc1cccc2[nH]c3c(N4CCC5(CC4)OCCO5)ncnc3c12`, for which the “hERG current change (%, negative = inhibition) at 1uM” value worked out at 8.06%.
`CCCCN(C(=O)c1cc2c(s1)CCCC2)c1c(N)n(CCC)c(=O)[nH]c1=O`: the “hERG current change (%, negative = inhibition) at 1uM” value came to 10%.
Consider `Cc1ccc(C)c2[nH]c(=O)c(C(c3nnnn3C3CCCC3)N3CCOCC3)cc12` (stereo not shown), for which the “hERG current change (%, negative = inhibition) at 1uM” value turned out to be 6.52%.
In the case of `Cc1cc(C)cc(NC(=S)N(Cc2ccc(Br)cc2)Cc2ccc(C(=O)O)cc2)c1`, the “hERG current change (%, negative = inhibition) at 1uM” value is reported as 10%.
In the case of `O=C(Nc1ccc(C(=O)NCCCN2CCN(c3ccc(F)cc3)CC2)cc1)C1=CSCCO1` it was 0.792%.
As for `CCOC(=O)CN=C(NS(=O)(=O)c1ccc(Cl)cc1)c1ccccc1`, the “hERG current change (%, negative = inhibition) at 1uM” value was 8.21%.
Under `COc1cccc(CNC(=O)C2CCCN(c3nn4c(=O)cc(C)nc4s3)C2)c1` (stereo not shown) stands 1.31%; under `Cn1c2c(c(=O)n(C)c1=O)C(c1ccccc1F)C(C#N)=C(N)O2` (stereo not shown), 9.61%; under `CCN(CC)c1ccc(/C=C/C(=O)c2cccnc2)cc1`, 9.65%.
With `CSc1ccc(CN2C(=O)NC3(CCCCCCC3)C2=O)cc1`, the “hERG current change (%, negative = inhibition) at 1uM” value came to 6.79%.
On to `O=C(O)c1cn(-c2ccccc2)c(=O)c2ccccc12`, for which the “hERG current change (%, negative = inhibition) at 1uM” value stood at 3.59%.
As to `O=C1CCC(C(=O)OCc2cc(Cl)ccc2OC(F)F)N1` (stereo not shown), the “hERG current change (%, negative = inhibition) at 1uM” value amounted to 13.4%.
Regarding `COc1cc(CN2CC(=O)N(c3cc(Cl)ccc3C)C2=S)cc(OC)c1OC`, the “hERG current change (%, negative = inhibition) at 1uM” value was 16.5%.
Turning to `CCC(C(=O)NC1CCCC1)N(C(=O)Cn1nnc(-c2ccc(C)o2)n1)C(C)(C)C` (stereo not shown), the “hERG current change (%, negative = inhibition) at 1uM” value is 0.794%.
In the case of `CCCSCC(=O)Nc1ncc2c(n1)-c1ccccc1CC2` it was 4.05%; in that of `COc1ccc(Nc2nc(NCc3ccco3)nc(N/N=C/c3ccccc3)n2)cc1`, 5.05%; in that of `Cl.c1ccc(-c2nc(NCCCn3ccnc3)c3oc4ccccc4c3n2)cc1`, 4.89%.
For the molecule `CCOC(=O)c1c(C)nc2sc(C(=O)Nc3ccc(C(C)=O)cc3)c(N)c2c1-c1ccc(OC)cc1`, the “hERG current change (%, negative = inhibition) at 1uM” value worked out at 9.59%.
Under `COc1cc(OC)c(N2CC(C(=O)Nc3cc(Cl)ccc3N3CCOCC3)CC2=O)cc1Cl` (stereo not shown) stands 6.05%; under `CCOc1ccccc1NC(=O)NC1CCCCCCC1`, 14%.
On to `N#CCCN(C(=O)COc1ccc(C#N)cc1)c1ccc(F)cc1`, for which the “hERG current change (%, negative = inhibition) at 1uM” value is recorded as -0.0401%.
As to `CN1CCN(C2=NC(=O)/C(=C/c3ccccc3OS(=O)(=O)c3ccccc3)S2)CC1`, the “hERG current change (%, negative = inhibition) at 1uM” value was -21.5%.
Consider `COc1ccc(NC2CCCN(C(=O)c3ccc(C(C)=O)s3)C2)cc1` (stereo not shown), for which the “hERG current change (%, negative = inhibition) at 1uM” value is reported as 19.7%.
Under `COc1ccc(-n2c(SCC(=O)Nc3ccc4c(c3)OCO4)nnc2C(C)N2CCCCC2)cc1` (stereo not shown) stands -10.7%.
As for `Cn1cccc1-c1nc2ccccc2[nH]1`, the “hERG current change (%, negative = inhibition) at 1uM” value turned out to be 7.06%.
Consider `O=C(O)C1=C[C@H](c2csc3ccccc23)C[C@H](OCCCCO)O1`, for which the “hERG current change (%, negative = inhibition) at 1uM” value is reported as 7.74%.
`CCCC[n+]1c2ccccc2cc2ccccc21.[I-]`: the “hERG current change (%, negative = inhibition) at 1uM” value was 11.5%.
As for `Cc1ccc(C)c(NS(=O)(=O)c2cc(C(=O)N3CCc4ccccc4C3)ccc2Cl)c1`, the “hERG current change (%, negative = inhibition) at 1uM” value is 11.7%.
Consider `O=C(N/N=C/c1ccc(O)cc1)c1cc(C2CC2)[nH]n1`, for which the “hERG current change (%, negative = inhibition) at 1uM” value was determined as 6.41%.
Under `O=C(Cn1ccc(NC(=O)OCc2ccccc2)nc1=O)NCc1nc2ccccc2[nH]1` stands 15.1%; under `C/C=C/c1ccc(OCCCn2cncn2)c(OC)c1`, 6%.
Regarding `CCCCN(C(=O)Cn1ncc(Cl)c(Cl)c1=O)c1c(N)n(CC(C)C)c(=O)[nH]c1=O`, the “hERG current change (%, negative = inhibition) at 1uM” value is reported as 17.2%.
On to `CSc1nc2ccccc2cc1/C=C(\C#N)c1ccc(Cl)cc1Cl`, for which the “hERG current change (%, negative = inhibition) at 1uM” value amounted to 6.16%.
In the case of `COc1ccc(-c2cc(=O)[nH][nH]2)cc1` it was 10.3%.
As to `C=CCn1c(C)cc(C(=O)CSc2nnc(NC(C)C)s2)c1C`, the “hERG current change (%, negative = inhibition) at 1uM” value was found to be 4.41%.
Regarding `COc1ccccc1Nc1nc(-c2c(C)[nH]c3ccccc23)cs1`, the “hERG current change (%, negative = inhibition) at 1uM” value amounted to 16.5%.
Take `O=C(Nc1cccc([N+](=O)[O-])c1)c1ccc2c(c1)OCCO2`: the “hERG current change (%, negative = inhibition) at 1uM” value is listed as 4.81%.
In the case of `CNP(=O)(Oc1ccccc1)OC12CC3CC(CC(C3)C1)C2` (stereo not shown), the “hERG current change (%, negative = inhibition) at 1uM” value is -1.75%.
On to `O=C(O)CCn1c(-c2ccccc2)cc2c1CCCC2=O`, for which the “hERG current change (%, negative = inhibition) at 1uM” value came to 16.8%.
Turning to `CCC1=C(OC(=O)N(CC)CC)N2C(=O)OC(=NCCc3c[nH]c4ccccc34)[C@]2(C)[C@H]2C1=CC[C@H]1C(=O)N(C)C(=O)[C@H]12`, the “hERG current change (%, negative = inhibition) at 1uM” value turned out to be 15.5%.
Under `O=C(COc1ccc(-n2cnnn2)cc1)Nc1ccccc1OC(F)F` stands 11.8%; under `Cn1c(=O)n(Cc2ccccc2)c(=O)c2c1nc1n2CCCN1CCc1ccccc1`, 3.61%; under `NS(=O)(=O)c1ccc(NC(=O)COC(=O)CC2Sc3ccccc3NC2=O)cc1` (stereo not shown), 13.3%.
As for `CN1CCN(c2ccc(N)cc2Cl)CC1.Cl`, the “hERG current change (%, negative = inhibition) at 1uM” value was 4.79%.
For the molecule `CSc1ccc(S(=O)(=O)Nc2c(C)n(C)n(-c3ccccc3)c2=O)cc1`, the “hERG current change (%, negative = inhibition) at 1uM” value amounted to 9.99%.
Under `CCOC(=O)Cn1c(O)c(N=NC(=O)CNC(=O)Cc2ccccc2)c2ccccc21` stands 6.05%; under `O=C(c1ccco1)N1C(=O)c2cccc3cccc1c23`, 5.53%; under `O=C(CCCOc1ccc(Br)cc1)Nc1nnc(C2CC2)s1`, 12%.
As to `CC(Oc1ccccc1)C(=O)N1CCC2(CC1)Oc1ccc(F)cc1C(=O)C21CC(c2ccccc2)=NO1` (stereo not shown), the “hERG current change (%, negative = inhibition) at 1uM” value is 14.1%.
Under `COc1ccc(-c2c(C)n([O-])c(C)c(-c3ccccc3)[n+]2=O)cc1OC` stands 4.59%.
In the case of `O=C(CCS(=O)(=O)c1ccccc1)Nc1ncc([N+](=O)[O-])s1` it was 18.1%.
For the molecule `CC1CCCC(NC2CCCCNC2=O)C1` (stereo not shown), the “hERG current change (%, negative = inhibition) at 1uM” value is given as 11.6%.
Consider `C[C@@H]1CN(C(=O)c2ccc(OC3CCN(S(=O)(=O)N(C)C)CC3)cc2)C[C@H](C)O1`, for which the “hERG current change (%, negative = inhibition) at 1uM” value is given as 2.69%.
In the case of `COc1ccc(NC(=O)C2CCN(S(=O)(=O)c3cccs3)CC2)cc1OC` it was 18.5%.
For the molecule `O=C(Nc1ccc(Cl)c(Cl)c1)N1CCOCC1`, the “hERG current change (%, negative = inhibition) at 1uM” value is reported as 6.12%.
Consider `CCCCn1c(N)c(N(CC)C(=O)Cc2ccc(S(=O)(=O)N3CCOCC3)s2)c(=O)[nH]c1=O`, for which the “hERG current change (%, negative = inhibition) at 1uM” value is -4.2%.
On to `COc1ccccc1-n1c(-c2ccoc2)nc2ccccc2c1=O`, for which the “hERG current change (%, negative = inhibition) at 1uM” value is on record as -11.5%.
In the case of `COCCOC(=O)C1=C(C)NC(C)=C(C(=O)OC(C)C)C1c1cccc([N+](=O)[O-])c1` (stereo not shown), the “hERG current change (%, negative = inhibition) at 1uM” value was found to be 4.52%.
For the molecule `CCC1(C2=NCCN2)Cc2ccccc2O1.Cl` (stereo not shown), the “hERG current change (%, negative = inhibition) at 1uM” value is 8.66%.
In the case of `CCOC(=O)C1CCCN(C(=O)c2cc3ncc(Br)cn3n2)C1` (stereo not shown) it was 8.85%; in that of `Cc1ccc(C2=NN(C(=O)CCC(=O)O)C(c3cn(-c4ccccc4)nc3-c3ccc(C)cc3)C2)cc1` (stereo not shown), 4.3%; in that of `CCOc1ccc(CN(C)CC(=O)Nc2cccc(S(=O)(=O)N(C)c3ccccc3)c2)cc1.O=C(O)C(=O)O`, 14.6%.
For the molecule `CC(C)c1ccc(/C=C2\SC(N3CCOCC3)=NC2=O)cc1`, the “hERG current change (%, negative = inhibition) at 1uM” value was -0.379%.
For `O=C(NC1CCCCC1)C(c1ccncc1)N(CC1CCCO1)C(=O)C(F)(F)F` (stereo not shown), the “hERG current change (%, negative = inhibition) at 1uM” value came out at 4.33%.
Turning to `CCn1c(SCC(=O)NC)nnc1C(C)C`, the “hERG current change (%, negative = inhibition) at 1uM” value is on record as 10.9%.
In the case of `CSc1ccccc1C(=O)NCc1ccccc1C`, the “hERG current change (%, negative = inhibition) at 1uM” value worked out at 12.5%.
Under `CCC(C)(C)NC(=O)/C=C/c1cnc2ccccc2n1` stands -0.677%; under `Cc1cc(=O)[nH]c2c1c(C)nn2-c1ccccc1`, 0.187%.
Consider `COc1ccc(C(C)C)cc1S(=O)(=O)N1CCC(C(=O)NCc2cccnc2)CC1`, for which the “hERG current change (%, negative = inhibition) at 1uM” value turned out to be 8.19%.
For the molecule `O=C(N/N=C/c1ccc(Cl)cc1Cl)c1cccc(F)c1`, the “hERG current change (%, negative = inhibition) at 1uM” value is -2.53%.
Turning to `CCOC(=O)c1c(C)c(C(=O)O)n(C)c1C`, the “hERG current change (%, negative = inhibition) at 1uM” value came to 10.3%.
Take `COc1cc(OC)cc(C(=O)N[C@H](C(=O)Nc2cc(F)ccc2C)C(C)C)c1`: the “hERG current change (%, negative = inhibition) at 1uM” value turned out to be 10.8%.
With `O=C(CSc1ccc2c(c1)OCCO2)NC(=O)NC1CCCC1`, the “hERG current change (%, negative = inhibition) at 1uM” value was 6.1%.
Under `CSc1ccc(Cc2ccc(Cl)cc2Cl)nn1` stands 5.79%; under `CCCCSc1nsc(NC(C)=O)n1`, 4.11%.
For the molecule `O=C(c1ccc2nc[nH]c2c1)N1CCN(c2cccc(C(F)(F)F)c2)CC1`, the “hERG current change (%, negative = inhibition) at 1uM” value is 17.2%.
`Cc1ccc(Cl)cc1NC1=C/C(=N\S(=O)(=O)c2cccs2)c2ccccc2C1=O`: the “hERG current change (%, negative = inhibition) at 1uM” value worked out at 8.85%.
For the molecule `CC(C)NS(=O)(=O)c1ccc(OCC(=O)NCc2ccccc2)cc1`, the “hERG current change (%, negative = inhibition) at 1uM” value stood at 12.9%.
For `Cc1ccccc1-c1cc2nc(C)c(Cl)c(=O)n2[nH]1`, the “hERG current change (%, negative = inhibition) at 1uM” value is on record as 9.76%.
For the molecule `Cc1sc2c(c1C)c(=O)n(-c1ccccc1)c1nnc(C)n21`, the “hERG current change (%, negative = inhibition) at 1uM” value worked out at 12.5%.
Under `O=C(O)c1cccc(NC(=O)c2cccc(S(=O)(=O)Nc3cccc([N+](=O)[O-])c3)c2)c1` stands 19%.
For the molecule `C=CCn1c(COc2ccccc2F)nnc1SCC(=O)Nc1cc(C)on1`, the “hERG current change (%, negative = inhibition) at 1uM” value was determined as 8.05%.
As for `Cc1ccc(/C=C/C(=O)C2C(=O)c3ccccc3C2=O)cc1`, the “hERG current change (%, negative = inhibition) at 1uM” value stood at 9.1%.
In the case of `COc1ccc2nc(C)cc(SCC(=O)N/N=C/c3ccc(O)c(O)c3)c2c1` it was 13%; in that of `O=C(NCCC1=CCCCC1)C1CCN(S(=O)(=O)c2cnc[nH]2)CC1`, 4.43%.

For the origin of these results see PMC4336329 (PLoS ONE, 2015).
